Structures are written as SMILES.

Data on one molecule can be found in patent US20250171404A1, “PCNA INHIBITORS AND USES THEREOF” (CITY OF HOPE, priority 2022, published 2025).

In the assay the test system is γH2A.X. The assay is described as follows: γH2A.X Western blot (DNA damage marker). In kind it is cell-based, human. As to conditions: 500 nM AOH1996 or 30 μM R9-caPep.

`COc1cccc(Oc2ccccc2NC(=O)CNC(=O)c2cccc3ccccc23)c1` [AOH1996, N-(2-((2-(3-methoxyphenoxy)phenyl)amino)-2-oxoethyl)-1-naphthamide]: the “induction of γH2A.X in L47V PCNA mutant cell lines” value is listed as “confers resistance to induction of the DNA damage marker γH2A.X”.
